Results: PubChem BioAssay AID1458 (National Center for Advancing Translational Sciences (NCATS), 2008)
In all, about 210,000 compounds went through this assay and about 5,900 (2.8%) were called active. This list was built around the results that the source calls inconclusive (neither active nor inactive); the mix of calls is not that of the screen. Calls follow the shape of the dose curve; as a rule, active = well fitted activation curve with a large enough effect; inconclusive = small, poorly fitted or top-dose-only effect; inactive = no such curve, though single readings can be large or run the other way. Potencies beside an inconclusive call are fits to weak or partial responses and may not hold up.

Test: qHTS Assay for Enhancers of SMN2 Splice Variant Expression; also: nearly all actives have a fitted effect of over 55% in size; as to activity change, positive = activation: % of control where 0% means no effect
Settings: HEK293 SMN2-luciferase splicing reporter, luminescence, 30-36 h; activity change, positive = activation: at 46.1 µM (top of the series)
How it was run: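 qHTS luciferase splicing reporter: luminescence rises when SMN2 exon 7 is included in transfected HEK293 cells. Compound exposure lasted 30-36 h at 37C, with 4.5 mM final sodium butyrate as control, followed by a ONE-Glo read.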
Potency is read from the fitted curve at half-maximal effect; tags tell the direction and shape of the fitted curve.

Q: For `O=C(Nc1ccc2c(c1)OCCO2)c1cccc(S(=O)(=O)N2CCOCC2)c1`, which Potency is on record?
A: inconclusive: 17.8 µM [activator, single point]

Q: With `Cn1c2c(c(=O)[nH]c1=O)C(NC(=O)c1ccco1)(C(F)(F)F)C(=O)N2` (configuration not stated) as the molecule, how does the Potency read?
A: inconclusive: 14.1 µM [activator, partial curve, poor fit]

Q: Which Potency does the source give for `CCC(=O)Nc1cccc(NC(=S)NC(=O)c2cc3ccccc3o2)c1` here?
A: active: 2.82 µM

Q: Which “activity change, positive = activation” value does the source give for `CCOc1ccc(C2C(C#N)=C(N)SC(N)=C2C#N)c(OCC)c1` here?
A: inactive: -1.11%

Q: Which “activity change, positive = activation” value does the source give for `CCc1cccc(C)c1NC(=O)c1ccc2c(c1)CCN2S(=O)(=O)c1ccc(Cl)cc1` here?
A: inactive: -10.3%

Q: For `C=CCNC(=O)c1ccccc1NS(=O)(=O)c1ccc(SC)cc1`, which Potency is on record?
A: inconclusive: 14.1 µM [activator, partial curve, poor fit]

Q: With `Cn1c(CNC(=O)c2ccco2)nnc1SCC(=O)Nc1c(F)cc(F)cc1Br` as the molecule, how does the “activity change, positive = activation” value read?
A: inactive: -5.42%

Q: For `CC(=O)c1ccc(N2CCN(C(=O)c3cn(C)c(=O)c4c3c3ccccc3n4C)CC2)cc1`, which “activity change, positive = activation” value is on record?
A: inactive: 11.7%

Q: For `COc1ccccc1OCC(=O)N(Cc1ccco1)Cc1ccccc1F`, which “activity change, positive = activation” value is on record?
A: inactive: -8.23%

Q: With `O=C(OC(C(=O)NC1CCCC1)c1cccnc1)C1=Cc2ccccc2OC1` (configuration not stated) as the molecule, how does the Potency read?
A: inconclusive: 0.112 µM [activator, full curve, poor fit]

Q: Which Potency does the source give for `COC(=O)c1nn(-c2ccc(-c3ccccc3)cc2)cc1O` here?
A: inconclusive: 35.5 µM [activator, single point]

Q: For `C=CCN1C(=O)C(O)(CC(=O)c2c(C)n[nH]c2C)c2cc(Br)ccc21` (configuration not stated), which Potency is on record?
A: inconclusive: 7.94 µM [activator, full curve, poor fit]

Q: Which “activity change, positive = activation” value does the source give for `CCCCC/C=C\C\C=C/C=C/C=C/[C@@H](SCC(N)C(=O)O)[C@@H](O)CCCC(=O)O` (some centres not stated) here?
A: inactive: 11%

Q: For `Cn1c(=O)n(/N=C/c2ccccc2)c2ccccc21`, which Potency is on record?
A: inconclusive: 12.6 µM [activator, partial curve, poor fit]

Q: For `Cc1ccc(C(=O)Nc2ccccc2SCC2CSc3nc4ccccc4c(=O)n32)cc1` (configuration not stated), which Potency is on record?
A: inconclusive: 31.6 µM [activator, single point]

Q: With `O=C(Cn1nnc2ccccc21)NCc1ccccc1` as the molecule, how does the Potency read?
A: active: 11.2 µM

Q: With `O=C(Nc1ccc(-c2cn3cccnc3n2)cc1)c1cc(Br)ccc1Cl` as the molecule, how does the “activity change, positive = activation” value read?
A: inactive: -11%

Q: With `COc1cc2c(cc1C1NC(=S)NC(C)=C1C(N)=O)CCCC2` (configuration not stated) as the molecule, how does the Potency read?
A: inconclusive: 11.2 µM [activator, partial curve]

Q: With `CCCOc1ccc2ccccc2c1/C=N/n1c(C)nnc1-n1nc(C)cc1C` as the molecule, how does the Potency read?
A: inconclusive: 7.08 µM [activator, full curve, poor fit]

Q: Which Potency does the source give for `Cn1c(=O)c2cn(-c3ccc4c(c3)OCCO4)cc2n(C)c1=O` here?
A: inconclusive: 20 µM [activator, partial curve, poor fit]

Q: With `O=C(NC(Cc1c[nH]c2ccccc12)C(=O)NCCCN1CCOCC1)c1cccs1` (configuration not stated) as the molecule, how does the “activity change, positive = activation” value read?
A: inactive: 18.9%

Q: Which Potency does the source give for `Cc1ccsc1C(=O)OC1CCOC1=O` (configuration not stated) here?
A: active: 25.1 µM

Q: Which Potency does the source give for `CC(C)=NOC(=O)c1ccc(-c2ccccc2)cc1` here?
A: inconclusive: 0.794 µM [activator, single point]

Q: Which Potency does the source give for `C/C(=N\NC(=O)Cc1cc(=O)[nH][nH]1)c1cccc([N+](=O)[O-])c1` here?
A: inconclusive: 35.5 µM [activator, single point]

Q: Which Potency does the source give for `COc1ccc(-n2ncc3c(Nc4cccc(C)c4)ncnc32)cc1` here?
A: inconclusive: 17.8 µM [activator, partial curve, poor fit]

Q: For `O=C(NCC(=O)N(Cc1ccco1)C(C(=O)NC1CCCCC1)c1cccnc1)c1cccs1` (configuration not stated), which “activity change, positive = activation” value is on record?
A: inactive: 8.65%

Q: For `O=C(COc1ccc2ccccc2c1Br)NC(=S)Nc1cccc(CO)c1`, which Potency is on record?
A: inconclusive: 35.5 µM [activator, single point]

Q: For `COCCn1c(SCC(=O)Nc2ccc3c(c2)OCCO3)nc2c(c1=O)SC(C)C2` (configuration not stated), which Potency is on record?
A: inconclusive: 0.398 µM [activator, full curve, poor fit]

Q: With `O=C(NCCC1=CCCCC1)C(=O)NCC(c1ccco1)N1CCN(c2ccc(F)cc2)CC1` (configuration not stated) as the molecule, how does the Potency read?
A: inconclusive: 1.26 µM [activator, single point]

Q: With `C[C@H]1/C=C\CC(=O)NCc2cccc(c2)CNC(=O)N[C@H]1c1ccccc1` as the molecule, how does the “activity change, positive = activation” value read?
A: inactive: 3.92%

Q: Which Potency does the source give for `CC1=Nc2nc(N3CCCCC3)c(C#N)c3c4c(nc(c23)N1)N(c1ccc(C(C)C)cc1)C(=O)C4` here?
A: inconclusive: 35.5 µM [activator, single point]

Q: With `Cc1ccc2c(=O)cc(C(=O)Nc3sc4c(c3C(=O)NCc3cccnc3)CCCC4)oc2c1C` as the molecule, how does the “activity change, positive = activation” value read?
A: inactive: 15.9%

Q: For `Cn1c(C(O)c2ccc3c(c2)OCO3)nc2ccccc21` (configuration not stated), which Potency is on record?
A: inconclusive: 2.82 µM [activator, partial curve]

Q: For `COc1cccc([C@@H]2Oc3ccc(Br)cc3C(=O)[C@H]2OC(=O)NS(=O)(=O)c2ccc(C)cc2)c1`, which Potency is on record?
A: inconclusive: 35.5 µM [activator, single point]

Q: With `Cc1ccc2nc(-c3cccc(Br)c3)cc(C(=O)Nn3cnnc3)c2c1` as the molecule, how does the Potency read?
A: active: 12.6 µM

Q: Which Potency does the source give for `COC(=O)C1C(O)=C(C=Nc2ccc3ccccc3c2)C(=O)CC1(C)C` (configuration not stated) here?
A: inconclusive: 35.5 µM [activator, single point]

Q: Which “activity change, positive = activation” value does the source give for `Cc1ccn2cc(-c3ccc(S(=O)(=O)N4CCOCC4)cc3)nc2c1` here?
A: inactive: 8.11%

Q: Which Potency does the source give for `CCOC(=O)c1cc2c(C(F)(F)F)cc(-c3cccnc3)nc2o1` here?
A: inconclusive: 12.6 µM [activator, partial curve, poor fit]

Q: With `COc1cc2[nH]c(=O)c(C(=O)NCCCN3CCCCC3)c(O)c2cc1OC` as the molecule, how does the activity change, positive = activation read?
A: inconclusive: 31.4% [activator]

Q: With `CCOc1ccc2nc(N(CCN(CC)CC)C(=O)c3cccc([N+](=O)[O-])c3)sc2c1` as the molecule, how does the “activity change, positive = activation” value read?
A: inactive: -14.2%

Q: With `O=C(/C=C/N1CCOCC1)c1ccc(-c2ccccc2)cc1` as the molecule, how does the Potency read?
A: inconclusive: 11.2 µM [activator, single point]

Q: For `COCC(=O)OCC(=O)Nc1ccc(Cl)cc1[N+](=O)[O-]`, which “activity change, positive = activation” value is on record?
A: inactive: 1.71%

Q: With `C/C(=N\OC(=O)c1ccccc1)c1cc(-c2ccc(Cl)cc2)no1` as the molecule, how does the Potency read?
A: inconclusive: 20 µM [activator, single point]

Q: For `COC(=O)c1sc(NC(=O)/C=C/c2ccccc2Cl)nc1C`, which Potency is on record?
A: inconclusive: 2.51 µM [activator, full curve, poor fit]

Q: With `CCOc1ccc(NC(=O)c2ccccc2O)cc1` as the molecule, how does the Potency read?
A: active: 3.16 µM

Q: With `Cc1ccccc1-c1nc(-c2cccnc2)no1` as the molecule, how does the Potency read?
A: inconclusive: 35.5 µM [activator, single point]

Q: With `CN1c2ccsc2/C(=N/Nc2ccc(F)cc2)CS1(=O)=O` as the molecule, how does the Potency read?
A: inconclusive: 15.8 µM [activator, partial curve]

Q: Which Potency does the source give for `O=[N+]([O-])c1cc(S(=O)(=O)N2CCCC2)ccc1NCCc1ccccc1` here?
A: inconclusive: 3.98 µM [activator, partial curve]

Q: Which Potency does the source give for `CCCCCn1c(-c2ccc(OC)c(OC)c2)nc2ccccc21` here?
A: inconclusive: 0.891 µM [activator, full curve]

Q: Which Potency does the source give for `CCCCNC(=O)C1c2ccccc2C(=O)N(c2ccc(OC)cc2)C1c1ccc(OC)cc1` (configuration not stated) here?
A: inconclusive: 14.1 µM [activator, single point]

Q: Which “activity change, positive = activation” value does the source give for `CCN(CC)S(=O)(=O)c1ccc(C(=O)Nc2ccc(OCC(=O)N3CCOCC3)cc2)cc1` here?
A: inactive: -14.8%

Q: Which “activity change, positive = activation” value does the source give for `COc1ccccc1OCCNC(=O)c1cc(F)c(F)cc1Cl` here?
A: inactive: 21.7%

Q: With `Cc1cccnc1NC(=S)Nc1ccc(Cl)c(Cl)c1` as the molecule, how does the Potency read?
A: inconclusive: 12.6 µM [activator, partial curve, poor fit]

Q: For `CC(O)C#C[Si](C)(C)c1ccccc1` (configuration not stated), which “activity change, positive = activation” value is on record?
A: inactive: 7.16%

Q: Which Potency does the source give for `Cn1c(=O)c2cc(S(=O)(=O)NC(C(=O)Nc3cccnc3)c3ccccc3)ccc2n(C)c1=O` (configuration not stated) here?
A: inconclusive: 12.6 µM [activator, partial curve, poor fit]

Q: For `COc1cccc(C(=O)Nc2c3c(nn2-c2cccc(C)c2C)CS(=O)(=O)C3)c1OC`, which Potency is on record?
A: inconclusive: 25.1 µM [activator, single point]

Q: Which “activity change, positive = activation” value does the source give for `CCOC(=O)C(=O)N1CCN(c2cc3c(cc2[N+](=O)[O-])n(C)c(=O)n3C)CC1` here?
A: inactive: 4.68%

Q: For `Nc1nc(CSCc2ccccc2)nc(N2CCOCC2)n1`, which Potency is on record?
A: inconclusive: 20 µM [activator, partial curve, poor fit]

Q: Which Potency does the source give for `CCCC(=O)Nc1ccc(-c2nc3ncccc3o2)cc1C` here?
A: inconclusive: 20 µM [activator, single point]

Q: For `COc1cc(C2c3c(-c4cc(C)ccc4O)n[nH]c3C(=O)N2CCCO)ccc1OCCC(C)C` (configuration not stated), which “activity change, positive = activation” value is on record?
A: inactive: 1.89%

Q: For `CC(=O)c1c(C)[nH]c(C(=O)Nc2cccc(S(=O)(=O)N3CCOCC3)c2)c1C`, which Potency is on record?
A: active: 8.91 µM

Q: For `O=c1cc(N=Nc2ccc(O)cc2)[nH]c(=O)[nH]1`, which activity change, positive = activation is on record?
A: inactive: -24.7% [at 9.22 µM]

Q: Which Potency does the source give for `COc1ccccc1N1C(=O)S/C(=C\c2cc(C)n(C)c2C)C1=O` here?
A: active: 14.1 µM

Q: With `NC(=O)c1ccsc1NC(=O)c1ccc2c(c1)CCCC2` as the molecule, how does the Potency read?
A: active: 1.58 µM

Q: For `Cc1cc(NC(=O)c2ccccc2F)on1`, which Potency is on record?
A: inconclusive: 35.5 µM [activator, single point]

Q: With `CC(C)(C)C(=O)Oc1ccc2cc(-c3ccc4ccccc4n3)c(=O)oc2c1` as the molecule, how does the Potency read?
A: active: 14.1 µM

Q: With `Nc1ccc(-c2cc(N)n(-c3ccccc3)n2)cc1` as the molecule, how does the Potency read?
A: inconclusive: 28.2 µM [activator, single point]

Q: With `c1ccc(COc2ccc(OCCCN3CCCCC3)cc2)cc1` as the molecule, how does the Potency read?
A: inconclusive: 12.6 µM [activator, single point]

Q: With `Cc1cccc(C)c1Nc1oc(-c2ccccc2)nc1-c1ccccc1` as the molecule, how does the “activity change, positive = activation” value read?
A: inactive: -1.88%

Q: For `Cc1sc2nc(C3CC3)nc(SCC(=O)N3CCCc4ccccc43)c2c1C`, which activity change, positive = activation is on record?
A: inactive: 8.75% [at 1.84 µM]

Q: Which “activity change, positive = activation” value does the source give for `Cn1c(C(C)(O)C(O)c2ccccc2)nc2ccccc21` (configuration not stated) here?
A: inactive: -32.5%

Q: For `O=c1cnc2cnc(N3CCOCC3)nc2n1C[C@H]1CCCO1`, which “activity change, positive = activation” value is on record?
A: inactive: -6.07%
